Reference: PubChem BioAssay AID504332 (National Center for Advancing Translational Sciences (NCATS), 2011)
“And” between values parts separate entries of the source, which are not always exact repeats. Equal entries are not always repeated. Out of some 350,000 compounds screened, about 31,000 (8.9%) were called active. The shares of active, inactive and inconclusive entries below differ from those in the screen. Calls come from the whole dose curve; as a rule, active = well fitted inhibition curve with a large enough effect; inconclusive = small, poorly fitted or top-dose-only effect; inactive = no such curve, though single readings can be large or run the other way. A potency beside an inconclusive call is a rough fit, not a confirmed value.

The compounds below were run against Histone-lysine N-methyltransferase EHMT2 (Homo sapiens) (UniProt Q96KQ7) (assay: qHTS Assay for Inhibitors of Histone Lysine Methyltransferase G9a). Conditions: G9a H3K9 monomethylation, AlphaScreen, 2 h; activity, negative = inhibition: at 59 µM (top of the series) unless noted.
Method in brief: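 Chemiluminescent proximity detection of H3K9 monomethylation, read after 10 min bead incubation in the dark. Reaction: 20 nM G9a, 500 nM biotin-H3K9 peptide, 20 uM SAM cofactor, 2 h, room temperature, following 15 min enzyme-compound preincubation.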
% is set by controls: 0 for no effect and ±100 for the full control effect; potency is the fitted concentration of half-maximal effect; tags give direction and shape of the fitted curve.
Note: nearly all actives have a fitted effect of over 75% in size.

Chain of UniProt Q96KQ7 (Q96KQ7 whole entry, looked up): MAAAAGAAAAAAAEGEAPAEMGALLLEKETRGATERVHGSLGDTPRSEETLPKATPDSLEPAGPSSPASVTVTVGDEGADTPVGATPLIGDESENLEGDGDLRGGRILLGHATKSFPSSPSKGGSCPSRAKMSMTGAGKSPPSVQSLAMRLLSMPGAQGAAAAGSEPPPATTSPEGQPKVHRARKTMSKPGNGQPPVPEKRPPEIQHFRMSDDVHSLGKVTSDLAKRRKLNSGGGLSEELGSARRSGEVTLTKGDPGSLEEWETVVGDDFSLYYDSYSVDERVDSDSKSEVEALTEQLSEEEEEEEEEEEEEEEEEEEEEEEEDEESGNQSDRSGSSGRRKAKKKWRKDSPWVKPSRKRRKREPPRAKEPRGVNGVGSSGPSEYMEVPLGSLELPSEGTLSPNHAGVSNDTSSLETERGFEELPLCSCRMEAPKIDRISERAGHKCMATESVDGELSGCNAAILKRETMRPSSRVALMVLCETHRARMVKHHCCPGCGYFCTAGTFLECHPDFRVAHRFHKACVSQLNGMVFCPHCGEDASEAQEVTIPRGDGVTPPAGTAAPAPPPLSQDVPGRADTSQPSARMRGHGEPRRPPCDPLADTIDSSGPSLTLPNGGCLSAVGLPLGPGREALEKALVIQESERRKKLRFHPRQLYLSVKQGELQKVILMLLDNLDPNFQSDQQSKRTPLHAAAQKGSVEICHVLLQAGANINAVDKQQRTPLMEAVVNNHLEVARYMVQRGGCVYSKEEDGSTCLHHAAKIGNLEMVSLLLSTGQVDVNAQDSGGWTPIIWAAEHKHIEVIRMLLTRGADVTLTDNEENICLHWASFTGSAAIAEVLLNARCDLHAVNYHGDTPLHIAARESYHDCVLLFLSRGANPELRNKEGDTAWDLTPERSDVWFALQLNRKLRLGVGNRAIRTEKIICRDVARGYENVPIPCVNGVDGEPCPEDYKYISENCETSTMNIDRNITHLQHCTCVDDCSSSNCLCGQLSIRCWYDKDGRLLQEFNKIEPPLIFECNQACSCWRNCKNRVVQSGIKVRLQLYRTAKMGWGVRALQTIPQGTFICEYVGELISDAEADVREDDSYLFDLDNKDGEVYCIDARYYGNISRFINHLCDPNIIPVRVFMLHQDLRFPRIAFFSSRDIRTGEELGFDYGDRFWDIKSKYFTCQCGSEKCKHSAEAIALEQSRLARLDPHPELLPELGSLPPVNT

SMILES | Potency | activity, negative = inhibition
CN(C)S(=O)(=O)c1ccc(N2CCCC2)c(C(=O)Nc2ccccc2F)c1 | inconclusive: 79.4 µM [inhibitor, single point] | 
CCCCCCOc1cccc(N)c1 | inconclusive: 70.8 µM [inhibitor, single point] | 
CCCOC(=O)c1cccc(Nc2nc(C(=O)OCC)nc3ccccc23)c1 |  | inactive: 5.99%
Cc1c(Cc2ccc3c(c2)OCO3)sc(NC(=O)c2cccc3ccccc23)c1C(N)=O | active: 7.08 µM | 
CCOc1ccc(C(=O)Nc2ccc(N3CCN(C)CC3)cc2)cc1[N+](=O)[O-] |  | inconclusive: -57.1% [inhibitor]
CC(C)CN1C(=O)C(=O)N(CC(=O)Nc2cc(Cl)ccc2Oc2ccccc2)C1=O | inconclusive: 35.5 µM [inhibitor, partial curve] | 
Cc1cc(C)cc(NC(=O)c2cc(S(=O)(=O)N3CCCCC3)c[nH]2)c1 |  | inactive: 0.311%
CCOC(=O)c1c(NC(=O)Cn2ccsc2=N)sc(C)c1C | inconclusive: 50.1 µM [inhibitor, partial curve, poor fit] | 
CSC1=NC(NCCCO)c2c(sc3c2CC(C)(C)OC3)N1 (configuration not stated) | inconclusive: 100 µM [inhibitor, single point] | 
Fc1ccc(N/N=C(/c2ccccc2)c2ccccn2)cc1 | active: 14.1 µM | 
Cc1cc(-c2ccc(C)c(S(=O)(=O)NCC3CCN(Cc4cccc(F)c4)CC3)c2)on1 |  | inactive: 1.37%
S=C(Nc1ccccc1)N1CCN(C(=S)c2ccccc2)CC1 | inconclusive: 50.1 µM [inhibitor, partial curve, poor fit] | 
Cc1ccc(CNC(=O)COC(=O)c2cncc(Br)c2)cc1 | inconclusive: 79.4 µM [inhibitor, single point] | 
CC(Oc1ccccc1F)C(=O)NCC1(N2CCOCC2)CCCCC1 (configuration not stated) |  | inactive: -2.94%
O=S(=O)(NCCN1CCCC1)c1ccc(C(F)(F)F)cc1 | inconclusive: 0.708 µM [inhibitor, partial curve, poor fit] | 
CO/N=C/c1ccc(Sc2ccccc2N)c([N+](=O)[O-])c1 | inconclusive: 35.5 µM [inhibitor, single point] | 
Cc1cccc(C)c1NC(=O)CN(C)C(=O)CC1Sc2ccccc2NC1=O (configuration not stated) |  | inactive: 9.67% [at 102 µM]
COc1cccc(CNC(=O)Nc2ccc3c(c2)N(C)C(=O)c2ccccc2S3)c1 |  | inactive: -40%
COC(=O)c1cc2oc3ccccc3c2n1Cc1ccccn1 |  | inactive: -33.8% [at 102 µM]
CCc1ccc(NC(=O)c2sc3nc(C)cc(C)c3c2NC(=O)c2ccccc2)cc1 |  | inactive: 6.56%
CC(C)(O)C#Cc1ccc(C(=O)NCc2cccs2)s1 |  | inactive: 17.6% [at 102 µM]
C=CC[n+]1ccn(-c2nc3ccccc3nc2[N-]S(=O)(=O)c2cccs2)c1 |  | inactive: -4.44% [at 102 µM]
CC1=NN(c2ccccc2)C(=O)/C1=C\C=C1\N(C)c2ccccc2C1(C)C | active: 14.1 µM | 
COc1ccc(CNC(=O)C2CCN(c3nnc(C)c4c(C)n(-c5ccc(C)cc5)nc34)CC2)cc1 | inconclusive: 10 µM [inhibitor, partial curve, poor fit] | 

SMILES | Potency | activity, negative = inhibition
CCn1nc(NC(=O)c2ccncc2)c2cc3cccc(C)c3nc21 |  | inactive: -21.8%
Cc1ccc(C(C(=O)NC2CCCCC2)N(Cc2ccco2)C(=O)Cn2cnc3ccccc32)cc1 (configuration not stated) | inconclusive: 39.8 µM [inhibitor, single point] | 
COC(=O)/C=C1\SC(N)=NC1=O |  | inactive: -1.07% [at 102 µM]
CCOC(=O)CNC(=O)CNC(=O)Cn1ccc2ccccc2c1=O | inconclusive: 89.1 µM [inhibitor, single point] | 
O=C(NCCc1ccc(Cl)cc1)C1CCC(=O)N1C1CCCC1 (configuration not stated) | active: 44.7 µM | 
CC(OC(=O)c1ccc(Cl)nc1)C(=O)N1CCc2ccccc21 (configuration not stated) |  | inactive: -27.7% [at 102 µM]
O=C(Nc1ccccc1N1CCCC1)c1ccco1 | active: 50.1 µM | 
N#C/C(=C\c1ccc(O)c(O)c1)C(N)=O | inconclusive: 22.4 µM [inhibitor, single point] | 
O=C(O)c1c2c(nc3ccc(S(=O)(=O)N4CCC(C(=O)NC5CCCCCC5)CC4)cc13)CCCC2 | active: 39.8 µM | 
Cc1cccc(C)c1OCC(=O)N/N=C/c1cc2c(cc1[N+](=O)[O-])OCO2 | inconclusive: 89.1 µM [inhibitor, single point] | 
NC(=S)N/N=C/c1cn(CCC(=O)O)nc1-c1cccc(Br)c1 | inconclusive: 89.1 µM [inhibitor, single point] | 
C=CCn1c(-c2ccc(OC)cc2)csc1=Nc1c(C)n(C)n(-c2ccccc2)c1=O | inconclusive: 89.1 µM [inhibitor, single point] | 
Cc1cc(C)cc(-n2ncc3c2CCCC3NC(=O)C2CCC2)c1 (configuration not stated) | inconclusive: 89.1 µM [inhibitor, single point] | 
Cn1c(=O)c2c(-c3ccccc3)n3c(c2n(C)c1=O)C(c1cccc([N+](=O)[O-])c1)Nc1ccccc1-3 (configuration not stated) |  | inactive: -2.07%
CC1CCCN(C(=O)Cc2cn(Cc3cccc(Cl)c3)c3ccccc23)C1 (configuration not stated) | inconclusive: 31.6 µM [inhibitor, single point] | 
CCCOc1ccc(N2C(=O)CC(NNC(=O)c3ccc(COc4ccccc4)o3)C2=O)cc1 (configuration not stated) | inconclusive: 89.1 µM [inhibitor, single point] | 
CCCn1c(CNc2ccccc2O)nc2ccccc21 | inconclusive: 0.794 µM [inhibitor, partial curve, poor fit] | 
O=C(CN1CCOc2ccccc21)NCc1ccc(F)cc1 | inconclusive: 89.1 µM [inhibitor, single point] | 
CCOC(=O)C1CCN(C(=O)c2ccc(Cl)c(Cl)c2)CC1 | inconclusive: 70.8 µM [inhibitor, single point] | 
Cc1ccc([N+](=O)[O-])cc1S(=O)(=O)Nc1ccccn1 |  | inactive: 4.77% [at 102 µM]
Cc1ccc(C(C#N)c2ccc3c(C(F)(F)F)cc(C(F)(F)F)nc3n2)cc1 (configuration not stated) | active: 11.2 µM | 
CNC(=O)/C(=N\O)c1ccccc1 | inconclusive: 22.4 µM [inhibitor, partial curve, poor fit] | 
COCCCn1c(=O)c2sccc2n(Cc2cccc(F)c2)c1=O |  | inactive: 18.3%
CS(=O)(=O)c1ccccc1-c1nnc(NC(=O)c2ccc(S(=O)(=O)N3CCCC3)cc2)o1 | inconclusive: 5.01 µM [inhibitor, partial curve, poor fit] | 

SMILES | Potency | activity, negative = inhibition
Cc1cccc2cc(CN(Cc3ccc(F)cc3)C(=O)N3CCOCC3)c3nnnn3c12 |  | inactive: 15.6%
O=S(=O)(c1cccc2c(I)cccc12)N1CCCNCC1 | inconclusive: 50.1 µM [inhibitor, partial curve] and inconclusive: 37.7 µM [inhibitor, single point] | 
CCOC(=O)CN(C)Cc1c[nH]c2ccccc12 | inconclusive: 3.16 µM [inhibitor, partial curve, poor fit] | 
CC(=O)NC(CCS(C)(=O)=O)C(=O)Nc1nccs1 (configuration not stated) | inconclusive: 25.1 µM [inhibitor, single point] | 
COC(=O)c1ccc(Cn2c(C)cc(C)[n+]2C)o1 | inconclusive: 2 µM [inhibitor, partial curve, poor fit] | 
Cc1oc(-c2ccccc2)nc1Cn1c(=O)cc(-c2ccccc2)c2c(C)nn(C)c21 |  | inactive: -13.3%
COc1ccc2cc(C(=O)C3CCCN(C(=O)c4cccnc4)C3)ccc2c1 (configuration not stated) | inconclusive: 79.4 µM [inhibitor, single point] | 
CCn1c(=O)c2cc(C(=O)NCCc3ccc(OC)c(OC)c3)sc2c2ccccc21 |  | inactive: -9.68%
Cc1nn(C)cc1C1C(C#N)=C(N)N(c2ccc(F)c([N+](=O)[O-])c2)C2=C1C(=O)CCC2 (configuration not stated) | inconclusive: 89.1 µM [inhibitor, single point] | 
CCOc1ccc(CNC(=O)c2ccc(Sc3ccc(C)cc3)c(N)c2)cc1OC |  | inactive: -0.881%
COc1ccc(OCC(=O)Nc2ccc3c(c2)N(C)C(=O)c2ccccc2S3)cc1 |  | inactive: -4.54%
CCOP(=O)(c1ccccc1)C1(C#N)CCCC1 (configuration not stated) | inconclusive: 89.1 µM [inhibitor, single point] | 
Cc1cccc(OCC(=O)Nc2cc(S(=O)(=O)N3CCCCC3)ccc2N2CCN(C)CC2)c1 |  | inactive: -19.3% [at 102 µM]
Cc1csc(NC(=O)CN2C(=O)c3ccccc3C2=O)c1C(N)=O | inconclusive: 70.8 µM [inhibitor, partial curve, poor fit] | 
COc1ccc(CN2CCN(C(=O)c3ccc(F)cc3)CC2)c(OC)c1 | active: 3.16 µM | 
CC(C)CN(CC(C)C)c1nnc(NC(=O)Nc2cccc(C(F)(F)F)c2)s1 | inconclusive: 39.8 µM [inhibitor, single point] | 
CC1(C)Cc2c(C#N)c(N3CCN(C(=O)c4ccco4)CC3)nc(Cc3ccccc3)c2CO1 | inconclusive: 70.8 µM [inhibitor, single point] | 
FC(F)(F)c1cnc(NNC(=S)Nc2cccnc2)c(Cl)c1 | active: 22.4 µM | 
Cc1nc2nc(C)c(NS(=O)(=O)c3ccc4c(c3)CCCC4)c(=O)n2[nH]1 | active: 70.8 µM | 
COc1ccc(-c2cc(C(F)(F)F)n3nc(C(=O)Nc4cccc(Cl)c4Cl)cc3n2)cc1OC | inconclusive: 22.4 µM [inhibitor, partial curve, poor fit] | 
CN(C)c1ccc(N=Cc2nc(-c3ccccc3)oc2OC(=O)c2cccc(Br)c2)cc1 | active: 31.6 µM | 
CC1=C(C(=O)Nc2ccc(C)cc2C)C(c2cc(Br)ccc2F)n2ncc(C(=O)Nc3ccc(C)cc3)c2N1 (configuration not stated) |  | inactive: -5.76%
Cc1ccc(NCc2ccc([N+](=O)[O-])s2)cc1 | active: 39.8 µM | 
c1ccc(CCc2nn3c(Cn4nnc5ccccc54)nnc3s2)cc1 | inconclusive: 2.82 µM [inhibitor, partial curve, poor fit] | 
